The labels stand for the following.
T1: UNK ZnF1-3 (human, UniProt Q9C0B0 31-174)
T1 sequence: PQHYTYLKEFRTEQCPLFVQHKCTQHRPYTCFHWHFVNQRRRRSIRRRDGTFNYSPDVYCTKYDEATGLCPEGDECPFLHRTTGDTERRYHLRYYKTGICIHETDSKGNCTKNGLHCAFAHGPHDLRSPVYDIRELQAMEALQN

B1: chr17:61432403:61432404:+_ENSG00000170921_ENST00000424789|hu_mus|FALSE|FALSE (ssRNA)
RNA: GGGAGUUCUACAGUCCGACGAUCCUUCAUAUUGCACUGGAGUAAAUAAACCUCAGAGAGCGAAACAGGAACGACUUUGUAGCUAGAACUCUUUAGCACUAGGUAGCCUUUCUCUAUGAGGUCAAAUGUGAGUUUCAGGUAUAGCAACAGAGGAUUGAGCAUCA
B2: 23884564_23898749_423_CDS_ENSMUSG00000026155_ENSMUST00000027339|mouse|control|control (ssRNA)
RNA: GGGAGUUCUACAGUCCGACGAUCUCGAAAGUUCUCUGGAAGAUUGGCUUCAUAAAGUAGUCUUGCUUUAGUAUUUCCCAUAUCUUGCAUGCACUGUAUCUGUUCUGGUGUCCAUUGGUCUAGGUUGACUGACUUGACUCUGGACAACAGAGGAUUGAGCAUCA
B3: 120564217_120564337_5200_3pUTR_ENSMUSG00000090100_ENSMUST00000028740|mouse|control|control (ssRNA)
RNA: GGGAGUUCUACAGUCCGACGAUCUUUAGAUGUCAACAGCAGCUAUAAACAAGAAUUCAGGCCUGAGUUUCUUCCCCUUGGACUGUGCUGGACUGACGCUUCCUGUGCAGAGGCACGGACUCCUCAUGUGCUUCCUACCUGCCCCAACAGAGGAUUGAGCAUCA
B4: chr17:65740002:65740003:+_ENSG00000130935_ENST00000581375|hu_hu|hu_hu_hu_mus_False|18_18 (ssRNA)
RNA: GGGAGUUCUACAGUCCGACGAUCAACAAAUCUUUCUUCCCUGGACGAACAGGAAGAUUCAUAUUAAAAAAAAUAUAUAUCCAUCAAGUUAGGUGUGGUGGCCACACCUUUACUCCCCACUUCAAUUGAGGUGGAUCUCUGAGUCAACAGAGGAUUGAGCAUCA
B5: 33708304_33708424_4120_3pUTR_ENSMUSG00000027677_ENSMUST00000099153|mouse|control|control (ssRNA)
RNA: GGGAGUUCUACAGUCCGACGAUCAACUCUGCUGUCUGGCUGCUCUUUGCUAUUUAGCAUCUCUUCUGGAGCCUCGUUUCUAUUACCCUCCCCACAACUGUCCUCCUUUUCAUACACACGCUCUCCCUGGUUUGUAUUUAACUGCAACAGAGGAUUGAGCAUCA
B6: chr14:21833301:21833302:-_ENSG00000092201_ENST00000216297|hu_mus|FALSE|FALSE (ssRNA)
RNA: GGGAGUUCUACAGUCCGACGAUCAUUGAUGCUAAAAACCAUCCCUUUCUUUAGCUUGUACUGAUUUUUACUAUUGAUUACUAGAGAGCCUUCACGGAAUUCAAUUCCCAUCCCAAAUCCUAGAUUCUUUGUAAUUUUGUUCAGCAACAGAGGAUUGAGCAUCA
B7: chr13:115030651:115030652:+_ENSG00000130177_ENST00000356221|hu_hu|FALSE|FALSE (ssRNA)
RNA: GGGAGUUCUACAGUCCGACGAUCAAUGUACAUUUCGAUGCAAUGACCAAGCAUUGUAACAGAAAAUGUAUCAUCUCGCCUAAGACCAAGGGCUGUGUGGAAGUAGUCCACAGCAUUUUCAAAGUUGCCCAUCAGACUGUGGAUCAACAGAGGAUUGAGCAUCA
B8: 24049677_24049797_5119_CDS_ENSMUSG00000031540_ENSMUST00000044331|mouse|control|control (ssRNA)
RNA: GGGAGUUCUACAGUCCGACGAUCGGAAUCAUAGCUGCUUGGGUUCUCAUAGUUCUCUGUGGUACUCUCGAUGCUGCCCAGAUCACUGAAGCCGCUGUCUACCACCUGCUGAGAGUGGUCUGAUACGGAAGGCACAUCCAUCAUCAACAGAGGAUUGAGCAUCA
B9: chr2:179763710:179763711:+_ENSMUSG00000039108_ENSMUST00000058764|mus_mus|motif|central (ssRNA)
RNA: GGGAGUUCUACAGUCCGACGAUCCUGAGGUGGCUCUGAGGACAUGUCAAGCUCUGAAACAGGCUGUGGAGAUGGAGAAGAACGGGGGCUGGAAGCAGCGGCUGAGGCUGGAGGGCUUACCAACUUCUCUAGACCUAAGGAAGCCAACAGAGGAUUGAGCAUCA
B10: chr4:160235802:160235803:+_ENSG00000109756_ENST00000264431|hu_mus|FALSE|FALSE (ssRNA)
RNA: GGGAGUUCUACAGUCCGACGAUCGCUCAUCAGAGGGUCUGAUGCUCUCUCGAUGUCUUCCUCAUCAUCGUCAUCCUCAGAGUCAACCGCCGUCUCUGGCAGUCCACUCAGGUCCAUGUCACCGGCCUCGCUCUCCGUGGCCUGCAACAGAGGAUUGAGCAUCA
B11: chr17:65740002:65740003:+_ENSG00000130935_ENST00000581375|hu_hu|hu_hu_hu_mus_False|8_98 (ssRNA)
RNA: GGGAGUUCUACAGUCCGACGAUCAACAAAUCUUUCUCUGGAUGAAGAACAGGAAGAUUCAUAUUAAAAAAAAUAUAUAUCCAUCAAGUUAGGUGUGGUGGCCACACCUUUACUCCCAGCACUUUGGGAAUAUAAUCUCUGAGUCAACAGAGGAUUGAGCAUCA
B12: 158576357_158589173_189_CDS_ENSG00000122335_ENST00000367104|human|control|control (ssRNA)
RNA: GGGAGUUCUACAGUCCGACGAUCUGAUCCAGUAAACUUUAUUAUAUUUCUGAUAUCUCUCCAGUGUGUGCCACUUUUUGGUGGGGAAGUAGAGGUUCCUAUUCUUCUGCAACAGAUGACGCAAUAAGCAGCCAGGGACAUUCUCAACAGAGGAUUGAGCAUCA
B13: chr3:176740097:176740098:-_ENSG00000177565_ENST00000430069|hu_mus|hu_hu_hu_mus_True|8_108 (ssRNA)
RNA: GGGAGUUCUACAGUCCGACGAUCUGUUUUUUACACCACAAAAGGAGGCACUUUCAGUAUCUGCAAAAGGUGUUUAGUCCUAAAACAUACUCACCUAGAGGAUAACUCAGGAAAACAAUCUGUUACACUAGUAUCUAUACUCCACAACAGAGGAUUGAGCAUCA
B14: 42175435_42175555_2497_3pUTR_ENSMUSG00000061080_ENSMUST00000099761|mouse|control|control (ssRNA)
RNA: GGGAGUUCUACAGUCCGACGAUCUGGGGCUCAGCCUUUAUAAAGCUAUGAAACUGAUGGAUUCUCCAGGCUUGCACACUGAGAGUGAAAUCAGCGACCAUCUUCCUCCCCUAGGUGAUAUUAUGCAGGCCACGGGUCUGUUCCCAACAGAGGAUUGAGCAUCA
B15: 125327386_125328085_3497_3pUTR_ENSMUSG00000030655_ENSMUST00000032891|mouse|control|control (ssRNA)
RNA: GGGAGUUCUACAGUCCGACGAUCAGUUACUUCCAAUUCACUCCCCUGAGUUAGACUAUUUGUUUUCAUUUCAGUAAGUAAGUCAAAGCCGUGCCUCACUGUCACUGCAGGCUGACCUGCCAACAAUCCAACCCUCAUGAUGGACAACAGAGGAUUGAGCAUCA
B16: chr2:104430793:104430794:+_ENSMUSG00000027176_ENSMUST00000028599|mus_mus|FALSE|FALSE (ssRNA)
RNA: GGGAGUUCUACAGUCCGACGAUCCGUCUCCUGACAUGGCCUCGGGGGACUACAACGUACGCACCAGCCGGCAAAGGGAAGCUAGAAAAGGAAAAUUAAACUAAAGGCAAACCCCACCAAAACCAGGAACACUACCCCUGUCCCCAACAGAGGAUUGAGCAUCA
B17: chr12:69233606:69233607:+_ENSG00000135679_ENST00000462284|hu_hu|FALSE|FALSE (ssRNA)
RNA: GGGAGUUCUACAGUCCGACGAUCUCUAAAUUCCUAGGGUUAUAUAGUUAGAAAUAUAUAAUUCUCUUAUAGACAGGUCAACUAGGGGAAAUAAGUUAGCACAAUCAUUUGAAUUGGUUGUCUACAUACUGGGCAGGGCUUAUUCAACAGAGGAUUGAGCAUCA
B18: chr1:167535829:167535830:-_ENSMUSG00000026566_ENSMUST00000068705|mus_hu|motif|central (ssRNA)
RNA: GGGAGUUCUACAGUCCGACGAUCAGGAGGGUUUUUGACAUCACAGAUAUAGGUGCCAUUGUGUAUAAACUGCAUAUUUUCGGUGUUGAUUGAUGCAUCUUUCUUGUCAAGGUCUCCAGCCCAGCUGAUUCUGUCUUUAAAUGGCAACAGAGGAUUGAGCAUCA
B19: 32520443_32521279_2648_CDS_ENSMUSG00000014496_ENSMUST00000014640|mouse|control|control (ssRNA)
RNA: GGGAGUUCUACAGUCCGACGAUCAUCUGCACUAGCACUGCUAACCAGCAUCUCAACUGUAUUGGUUUGUCCGUUUUCUGCAGCCAUCAUGAGAGGUGUUUUUCCGGUAGAGUCUGCGGAAUUGACCUGAGCAUUCUGGCUGAGCAACAGAGGAUUGAGCAUCA
B20: chr13:110848956:110848957:-_ENSMUSG00000021700_ENSMUST00000167824|mus_mus|FALSE|FALSE (ssRNA)
RNA: GGGAGUUCUACAGUCCGACGAUCAGACAAACCAACACUAGAGUUCUUGGGAGUGUUUUCCGAAGCAGUUAGGGUUGUUCUAAAAACAAUGGAUGGGCAGGGGUACCCAGAUGACCACAGGGGAGGGCAAUGACACACUUAAAACAACAGAGGAUUGAGCAUCA
B21: chr20:17594467:17594468:-_ENSG00000125844_ENST00000246043|hu_mus|FALSE|FALSE (ssRNA)
RNA: GGGAGUUCUACAGUCCGACGAUCCCUCUGAGAACUCACCACCUGGCCUGUUGCUUCCCAACCUGGCCCCACUGAGAAAUACAGACAAUUGCACUGAUUGACAUAAACCCCGAGAGUCCUGGACUCCCAGCACACCCUGGUCUGCAACAGAGGAUUGAGCAUCA
B22: chr6:79679595:79679596:-_ENSG00000146247_ENST00000275034|hu_hu|motif|central (ssRNA)
RNA: GGGAGUUCUACAGUCCGACGAUCUAUAUUCCAUCGCCUGUAUUUUGCAUCAUCAAAUUGUUGUCUCAAGACUAGGAAAUCGGUAACGUCAGGCAUAUCAUGGUAUUUCAUGGUAAAUGAUCCGCCAGUCAGUUUACCAGUAUCCAACAGAGGAUUGAGCAUCA

Some of the results follow.

This test has as its target T1, UNK ZnF1-3. As to the kind of experiment: nsRBNS (natural sequence RNA bind-n-seq); RBNS binding buffer (assumed for nsRBNS): 25 mM Tris pH 7.5, 150 mM KCl, 3 mM MgCl2, 0.01% Triton X-100, 500 ug/ml BSA, 20 U/ml SUPERase-In, 4 C; UNK is unkempt and MSI1 is Musashi-1; names of the RNAs are library labels; protein concentration not given here; high values mean tight binding.
The molecule B1 displayed a binding signal of 1.07 enrichment R. The result for B2 reads 0.689 enrichment R; that for B3, 1 enrichment R.

B4 yielded a binding signal of 0.736 enrichment R. As for B5, the binding signal came out at 0.63 enrichment R. As for B6, the binding signal turned out to be 0.818 enrichment R. In the case of B7 it was 0.745 enrichment R; in that of B8, 0.589 enrichment R. The result for B9 reads 1.91 enrichment R; that for B10, 0.414 enrichment R; that for B11, 1.68 enrichment R. In the case of B12 it was 1.24 enrichment R; in that of B13, 0.756 enrichment R. Consider B14, for which the binding signal was 1.14 enrichment R.

In turn, B15 showed a binding signal of 0.4 enrichment R.

B16: the binding signal came to 1.98 enrichment R. The result for B17 reads 1.86 enrichment R. In the case of B18 it was 0.58 enrichment R; in that of B19, 0.31 enrichment R. Molecule B20 gave a binding signal of 2.17 enrichment R.

Molecule B21 yielded a binding signal of 1.16 enrichment R.

B22: the binding signal was 0.982 enrichment R.
